From the BET-seq Pho4 binding data (Le et al. 2018)
This is one part of the list. The energies were worked out here from pooled read counts, against the library average; single values are noisy.

Biological target: T1, Pho4 (S. cerevisiae) (UniProt P07270)
T1 sequence: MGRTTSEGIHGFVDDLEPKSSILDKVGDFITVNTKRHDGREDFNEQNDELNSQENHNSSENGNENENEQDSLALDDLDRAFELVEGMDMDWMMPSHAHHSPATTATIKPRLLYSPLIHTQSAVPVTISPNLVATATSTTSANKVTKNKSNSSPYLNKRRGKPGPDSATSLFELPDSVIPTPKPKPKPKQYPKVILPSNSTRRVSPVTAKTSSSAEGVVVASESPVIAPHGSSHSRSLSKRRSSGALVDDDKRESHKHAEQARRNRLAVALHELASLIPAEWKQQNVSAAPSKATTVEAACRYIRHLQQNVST
Experiment: relative binding free energy (BET-seq); higher = weaker binding
Conditions: reference: library average

Sequence | relative binding free energy [kcal/mol]
TAATGCACGTGGAAGG | 0.22
ATTGTCACGTGATGCA | 0.2
TAGACCACGTGTTGTT | 0.07
ACGGTCACGTGGTCTG | 0.21
TTGCGCACGTGCAAGT | 0.04
GTGTGCACGTGTCTTA | 0.08
GTTATCACGTGAAGAA | 0.4
CGGTGCACGTGAATGG | 0.29
TGTTTCACGTGCTGAA | 0.13
AGTCACACGTGTTATT | 0.12
CGGGGCACGTGAGAAG | 0.02
TTTGTCACGTGGTGAC | 0.05
TGGAGCACGTGGATGG | -0.07
GTCGACACGTGTAGTG | 0.15
AGTGGCACGTGCGGAT | -0.23
AGAGGCACGTGTACTT | 0.07
TCGTTCACGTGAGGGG | 0.44
AGAAGCACGTGTTCTG | -0.02
AGTGACACGTGATTTG | 0.06
TTGATCACGTGCGGCT | 0.12
TAGACCACGTGTGGGG | 0.03
TTCGTCACGTGAAATG | 0.41
TATATCACGTGCTGGG | 0.12

Sequence | relative binding free energy [kcal/mol]
TTTGTCACGTGGGCGT | 0.02
ACGTTCACGTGGGGGA | 0.16
TTTCACACGTGGAGGT | 0.18
TGCGGCACGTGTGAGC | -0.11
TACTGCACGTGTATAT | 0.05
GAAGGCACGTGGATGC | 0.04
ATAAGCACGTGCGGGG | -0.18
TGAATCACGTGTCGTG | 0.2
TTCAGCACGTGAATGT | 0.16
AGGAGCACGTGGGCGC | -0.28
TTGTACACGTGGTGAT | 0.09
TAAGTCACGTGTATGT | 0.01
GTTTTCACGTGAAGGG | 0.4
GTTTGCACGTGTCTGC | 0.23
CATGGCACGTGTGGGT | 0.02
TGAGCCACGTGTTGGG | 0.02
ATTCTCACGTGTGAGT | 0.15
GTATTCACGTGACGTA | 0.38
TTGATCACGTGAGGTA | 0.21
AGGATCACGTGACGGG | 0.24
GTGTGCACGTGGGATT | -0.04
TGTTACACGTGGCGGT | 0.1
GTTATCACGTGGCTGT | -0.02

Sequence | relative binding free energy [kcal/mol]
TTGGGCACGTGAGAAA | 0.16
TCGTACACGTGTTATG | 0.22
TGAGACACGTGGTATG | -0.09
TGGTACACGTGTTGAA | 0.09
TGTGCCACGTGATTCG | 0.11
TCGGGCACGTGCTGTT | -0.06
ATTCTCACGTGAGTGT | 0.2
AGGCACACGTGGCGGG | -0.15
GGGTTCACGTGTATAA | 0.45
TGTGGCACGTGTCGGA | -0.07
TGGAGCACGTGTGCTG | 0.05
GTGTGCACGTGTGCTG | 0.06
TTGAGCACGTGAGCTG | 0.08
ATTGACACGTGAGTTA | 0.07
GAGTTCACGTGCTTAA | 0.51
TATTCCACGTGTTGAG | 0.07
TTGAACACGTGAGTTG | 0.32
TTTGACACGTGTTCTG | -0.03
AGTAGCACGTGTATAG | -0.03
TATAGCACGTGCTAGG | -0.21
GAATTCACGTGGTGGT | 0.28
GAATGCACGTGTAAGT | 0.19
GAGTGCACGTGTGTAG | -0.07

Sequence | relative binding free energy [kcal/mol]
AGATTCACGTGAGTCT | 0.51
AGTTTCACGTGTCGGT | 0.32
CTTGCCACGTGTTAGG | -0.08
GTTTGCACGTGATATT | 0.13
GCAGTCACGTGGGCGG | -0.16
GTGGGCACGTGAGACT | 0.34
GTGATCACGTGTCAGG | -0.04
TAGATCACGTGTGGGC | 0.27
TGCTCCACGTGTGTGG | 0.01
GGAGTCACGTGAGCGT | 0.2
TGTCGCACGTGTAGTA | -0.05
TAGGGCACGTGGTGCC | -0.04
AGTGGCACGTGTTTAG | -0.03
TTTTGCACGTGCTCGG | -0.17
CTGGTCACGTGTTCGG | 0.1
GGTTTCACGTGGAGAG | 0.23
TTGGGCACGTGCTTGA | -0.2
GTCGACACGTGTGATG | 0.16
TCTTACACGTGTTTGA | 0.2
GGGAACACGTGGTTTT | 0.11
TAATGCACGTGGGCGG | -0.12
TAATACACGTGTTGGG | 0
GTTCGCACGTGGGATT | 0

Sequence | relative binding free energy [kcal/mol]
GTGTTCACGTGCTATG | 0.15
GTCAGCACGTGCGGGG | 0
GTGGGCACGTGGCCAG | -0.25
GGATGCACGTGGGAGA | 0.12
AGAGGCACGTGCGGGT | -0.14
ACGTTCACGTGTGGCT | 0.11
TTAATCACGTGATCTT | 0.19
CGTAGCACGTGGATGG | -0.16
CAGTCCACGTGTGTGT | 0.12
TAGTGCACGTGTATTA | -0.04
TTAAGCACGTGTTGTG | -0.11
TTGGGCACGTGTGGCG | -0.09
GGGTGCACGTGATGGT | 0.2
TAAGGCACGTGGTTAA | -0.12
ACTTGCACGTGTTTAA | 0.11
AGGCGCACGTGTGGGG | 0.02
AAGATCACGTGCTGTG | 0.08
TTGATCACGTGCTTGA | 0.04
TGTGGCACGTGAGCAA | 0.07
TACATCACGTGTTGGG | 0
TTGCTCACGTGGTCAG | 0.16
ATGGTCACGTGGGCGA | -0.08
AGTGGCACGTGGTATT | -0.22
